# Source: the supplement of paper PMC11741623
# The list shows a part of the results. Interaction screen of human proteins with wild-type SARS-CoV-2 proteins by split-DHFR complementation in yeast, 1 µg/mL methotrexate. Value = fitness of the pair (three or more lineages) minus that of the viral protein without a human partner, on a scale set by negative (0) and fused positive (1) controls, mean of up to three cultures; higher = more likely to interact. Active = false discovery rate below 0.05 (one-sided t-test) in at least one culture. Nearly all pairs are not hits, and differences among them are mostly noise (correlation between cultures about 0.3); most hits were seen in one culture only. Human sequences are the Swiss-Prot entries looked up by gene name; the clone may be another isoform. NSP2 values were corrected by the authors for a growth advantage. Listed are human proteins with a hit and a random twelfth of the others.
# B1: ELOVL1, Q9BW60 (protein)
# chain: MEAVVNLYQEVMKHADPRIQGYPLMGSPLLMTSILLTYVYFVLSLGPRIMANRKPFQLRGFMIVYNFSLVALSLYIVYEFLMSGWLSTYTWRCDPVDYSNSPEALRMVRVAWLFLFSKFIELMDTVIFILRKKDGQVTFLHVFHHSVLPWSWWWGVKIAPGGMGSFHAMINSSVHVIMYLYYGLSAFGPVAQPYLWWKKHMTAIQLIQFVLVSLHISQYYFMSSCNYQYPVIIHLIWMYGTIFFMLFSNFWYHSYTKGKRLPRALQQNGAPGIAKVKAN
# B2: SLC3A2, P08195 (protein)
# chain: MELQPPEASIAVVSIPRQLPGSHSEAGVQGLSAGDDSELGSHCVAQTGLELLASGDPLPSASQNAEMIETGSDCVTQAGLQLLASSDPPALASKNAEVTGTMSQDTEVDMKEVELNELEPEKQPMNAASGAAMSLAGAEKNGLVKIKVAEDEAEAAAAAKFTGLSKEELLKVAGSPGWVRTRWALLLLFWLGWLGMLAGAVVIIVRAPRCRELPAQKWWHTGALYRIGDLQAFQGHGAGNLAGLKGRLDYLSSLKVKGLVLGPIHKNQKDDVAQTDLLQIDPNFGSKEDFDSLLQSAKKKSIRVILDLTPNYRGENSWFSTQVDTVATKVKDALEFWLQAGVDGFQVRDIENLKDASSFLAEWQNITKGFSEDRLLIAGTNSSDLQQILSLLESNKDLLLTSSYLSDSGSTGEHTKSLVTQYLNATGNRWCSWSLSQARLLTSFLPAQLLRLYQLMLFTLPGTPVFSYGDEIGLDAAALPGQPMEAPVMLWDESSFPDIPGAVSANMTVKGQSEDPGSLLSLFRRLSDQRSKERSLLHGDFHAFSAGPGLFSYIRHWDQNERFLVVLNFGDVGLSAGLQASDLPASASLPAKADLLLSTQPGREEGSPLELERLKLEPHEGLLLRFPYAA
# B3: DGCR8, Q8WYQ5 (protein)
# chain: METDESPSPLPCGPAGEAVMESRARPFQALPREQSPPPPLQTSSGAEVMDVGSGGDGQSELPAEDPFNFYGASLLSKGSFSKGRLLIDPNCSGHSPRTARHAPAVRKFSPDLKLLKDVKISVSFTESCRSKDRKVLYTGAERDVRAECGLLLSPVSGDVHACPFGGSVGDGVGIGGESADKKDEENELDQEKRVEYAVLDELEDFTDNLELDEEGAGGFTAKAIVQRDRVDEEALNFPYEDDFDNDVDALLEEGLCAPKKRRTEEKYGGDSDHPSDGETSVQPMMTKIKTVLKSRGRPPTEPLPDGWIMTFHNSGVPVYLHRESRVVTWSRPYFLGTGSIRKHDPPLSSIPCLHYKKMKDNEEREQSSDLTPSGDVSPVKPLSRSAELEFPLDEPDSMGADPGPPDEKDPLGAEAAPGALGQVKAKVEVCKDESVDLEEFRSYLEKRFDFEQVTVKKFRTWAERRQFNREMKRKQAESERPILPANQKLITLSVQDAPTKKEFVINPNGKSEVCILHEYMQRVLKVRPVYNFFECENPSEPFGASVTIDGVTYGSGTASSKKLAKNKAARATLEILIPDFVKQTSEEKPKDSEELEYFNHISIEDSRVYELTSKAGLLSPYQILHECLKRNHGMGDTSIKFEVVPGKNQKSEYVMACGKHTVRGWCKNKRVGKQLASQKILQLLHPHVKNWGSLLRMYGRESSKMVKQETSDKSVIELQQYAKKNKPNLHILSKLQEEMKRLAEEREETRKKPKMSIVASAQPGGEPLCTVDV
# How the values were obtained:
# Experiment in all cases: yeast fitness gain over the viral ORF with no human partner (scaled fitness); higher = more likely to interact
# SARS-CoV-2 E = target: SARS-CoV-2 E
# Experimental: (§1)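 Split mouse DHFR complementation in pooled diploid yeast: human ORFeome clones carry one fragment and viral ORFs the other; barcoded lineages compete in 1 µg/mL methotrexate and fitness is read by barcode sequencing in up to three cultures.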
# SARS-CoV-2 M = target: SARS-CoV-2 M
# Experimental: as §1
# SARS-CoV-2 N = target: SARS-CoV-2 N
# Experimental: as §1
# SARS-CoV-2 NSP1 = target: SARS-CoV-2 NSP1
# Experimental: as §1
# SARS-CoV-2 NSP10 = target: SARS-CoV-2 NSP10
# Experimental: as §1
# SARS-CoV-2 NSP12 = target: SARS-CoV-2 NSP12
# Experimental: as §1
# SARS-CoV-2 NSP13 = target: SARS-CoV-2 NSP13
# Experimental: as §1
# SARS-CoV-2 NSP14 = target: SARS-CoV-2 NSP14
# Experimental: as §1
# SARS-CoV-2 NSP15 = target: SARS-CoV-2 NSP15
# Experimental: as §1
# SARS-CoV-2 NSP16 = target: SARS-CoV-2 NSP16
# Experimental: as §1
# SARS-CoV-2 NSP2 = target: SARS-CoV-2 NSP2
# Experimental: as §1
# SARS-CoV-2 NSP4 = target: SARS-CoV-2 NSP4
# Experimental: as §1
# SARS-CoV-2 NSP5 = target: SARS-CoV-2 NSP5
# Experimental: as §1
# SARS-CoV-2 NSP6 = target: SARS-CoV-2 NSP6
# Experimental: as §1
# SARS-CoV-2 NSP7 = target: SARS-CoV-2 NSP7
# Experimental: as §1
# SARS-CoV-2 NSP8 = target: SARS-CoV-2 NSP8
# Experimental: as §1
# SARS-CoV-2 NSP9 = target: SARS-CoV-2 NSP9
# Experimental: as §1
# SARS-CoV-2 ORF10 = target: SARS-CoV-2 ORF10
# Experimental: as §1
# SARS-CoV-2 ORF3A = target: SARS-CoV-2 ORF3A
# Experimental: as §1
# SARS-CoV-2 ORF3B = target: SARS-CoV-2 ORF3B
# Experimental: as §1
# SARS-CoV-2 ORF6 = target: SARS-CoV-2 ORF6
# Experimental: as §1
# SARS-CoV-2 ORF7A = target: SARS-CoV-2 ORF7A
# Experimental: as §1
# SARS-CoV-2 ORF7B = target: SARS-CoV-2 ORF7B
# Experimental: as §1
# SARS-CoV-2 ORF8 = target: SARS-CoV-2 ORF8
# Experimental: as §1
# SARS-CoV-2 ORF9B = target: SARS-CoV-2 ORF9B
# Experimental: as §1
# [1] = target: SARS-CoV-2 ORF9Bwu (the 73-codon ORF)
# Experimental: as §1
# SARS-CoV-2 S = target: SARS-CoV-2 S
# Experimental: as §1
Binder,yeast fitness gain (SARS-CoV-2 E),yeast fitness gain (SARS-CoV-2 M),yeast fitness gain (SARS-CoV-2 N),yeast fitness gain (SARS-CoV-2 NSP1),yeast fitness gain (SARS-CoV-2 NSP10),yeast fitness gain (SARS-CoV-2 NSP12),yeast fitness gain (SARS-CoV-2 NSP13),yeast fitness gain (SARS-CoV-2 NSP14),yeast fitness gain (SARS-CoV-2 NSP15),yeast fitness gain (SARS-CoV-2 NSP16),yeast fitness gain (SARS-CoV-2 NSP2),yeast fitness gain (SARS-CoV-2 NSP4),yeast fitness gain (SARS-CoV-2 NSP5),yeast fitness gain (SARS-CoV-2 NSP6),yeast fitness gain (SARS-CoV-2 NSP7),yeast fitness gain (SARS-CoV-2 NSP8),yeast fitness gain (SARS-CoV-2 NSP9),yeast fitness gain (SARS-CoV-2 ORF10),yeast fitness gain (SARS-CoV-2 ORF3A),yeast fitness gain (SARS-CoV-2 ORF3B),yeast fitness gain (SARS-CoV-2 ORF6),yeast fitness gain (SARS-CoV-2 ORF7A),yeast fitness gain (SARS-CoV-2 ORF7B),yeast fitness gain (SARS-CoV-2 ORF8),yeast fitness gain (SARS-CoV-2 ORF9B),yeast fitness gain [1],yeast fitness gain (SARS-CoV-2 S)
B1,inactive: 0.196,inactive: 0.0279,inactive: 0.0262,inactive: 0.0109,inactive: 0.032,inactive: 0.0205,inactive: 0.0364,inactive: -0.0313,inactive: 0.0665,inactive: -0.00922,inactive: -0.107,inactive: 0.0952,inactive: 0.0188,inactive: 0.0483,inactive: 0.0578,inactive: 0.08,inactive: 0.0443,inactive: 0.0425,inactive: 0.0617,inactive: 0.0289,inactive: 0.0217,inactive: 0.156,active: 0.226,inactive: -0.0225,inactive: -0.000208,inactive: 0.0414,inactive: 0.0355
B2,inactive: -0.0127,inactive: 0.0477,inactive: 0.116,inactive: -0.0606,inactive: 0.0365,inactive: 0.033,inactive: -0.0401,inactive: 0.0444,inactive: 0.00972,inactive: -0.0739,inactive: -0.129,inactive: 0.0218,inactive: -0.00171,inactive: -0.0102,inactive: -0.0278,inactive: 0.109,inactive: -0.0279,inactive: -0.036,inactive: -0.0268,inactive: -0.00506,inactive: -0.0273,inactive: 0.00363,inactive: -0.00779,inactive: -0.0099,inactive: 0.0312,inactive: 0.0178,inactive: 0.0687
B3,inactive: 0.0211,inactive: -0.0551,active: 0.518,inactive: 0.0116,inactive: 0.00162,inactive: 0.0466,inactive: 0.0165,inactive: 0.0423,inactive: 0.0377,inactive: 0.015,inactive: 0.0675,inactive: -0.0996,inactive: -0.0402,inactive: 0.032,inactive: 0.0113,inactive: 0.00423,inactive: 0.0106,inactive: 0.0472,inactive: 0.00458,inactive: 0.0198,inactive: -0.0153,inactive: -0.0312,inactive: -0.0529,inactive: 0.00504,inactive: 0.00679,inactive: 0.0194,inactive: 0.0305
